Test results from the RNAGym collection of RNA variant scans (doi:10.7554/elife.90254).
Read counts are not given, so values of variants with three or more changes are uncertain.

B1: OR4K15 (parent)
chain: GUUAACGGUCAUAGGCCAUGGAAACUAGGAGCACCAUUUCGCUGCCAGUGAAGAAAUGAACAAAGAAAAUCUGGGCCAGGCAGGCAUCAAAAGAAAUAGUCUUGCGCUCAACCAGAAAGUCUGUAAUCAUUUUAAGGGUA

Variants of: B1
Assay: self-cleavage, relative activity (ratio to wild type); higher = more cleavage; in vitro, sequencing; the parent is a self-cleaving ribozyme

Row | Variant | self-cleavage
1 | A18G U124A U130C | 0.16
2 | A27G A64G A68G A90G | 0.71
3 | A27G U72A C105U U120C | 0.01
4 | U26C A59G A68G | 1.27
5 | A60G A67G U72A A78G A92G U130C | 0.06
6 | A94G A111G A117G | 0.02
7 | A47G A95G A140U | 1.57
8 | A18U A95G G123A | 2.21
9 | C17U C85U A125G A140G | 0.12
10 | U37C A82G A111G U127A | 0.04
11 | U39C A62G U102C | 2.13
12 | U39C A117G A129U A134G | 0.94
13 | U12C A24G U49C C112U U132C | 0.04
14 | A18G A56G U120C | 0.45
15 | A55G A78G C88U | 0.21
16 | A30U A90G A92G | 1.25
17 | A82G A114U U127C | 0.01
18 | U2A A11G A56G A96G U127C | 0.89
19 | G20U C25A A96G A118G | 0.32
20 | U57A G106A U131C | 0.02
21 | U2C G7U A27U U37C A55G A114C A134U | 0.04
22 | A24G A82U U108C | 0.01
23 | A56G A66G A78G U87C A118C | 0.11
24 | G1A A33U U43C U132C | 1.79

Row | Variant | self-cleavage
25 | A18G A23G A68G A90G | 1.6
26 | A59G A63U A66G U100C U131C A135G | 2.4
27 | U26C U70C A114G | 0.08
28 | C34U U38C U130C | 0.95
29 | U2A A5G U9A U38C A55U C88U A96G | 1.11
30 | A89G U103C A117G U122A A126G | 0.53
31 | A36G U49A C88A U127C | 1.66
32 | A23G U39A A118G | 0.81
33 | G8A A23G A63G | 0.53
34 | A62G A68G A126U | 0.69
35 | U2C A47U U57G A69G | 0.35
36 | G15U A52G A95G | 1.52
37 | U12C A18G A22G U38C C85U U108C A140G | 0.01
38 | A54G U100A A118G | 2
39 | U26A U57C A69U | 1.2
40 | U19A A52U A91G A135U | 0.91
41 | A69G A98G G104A U132C | 0.01
42 | U37C U38C U57C | 1.05
43 | A18C U39C A52G A66G A89G A111G | 0.07
44 | A54G A95U U108C U131C | 0
45 | U38C A62G U70C U72C | 0.32
46 | A55G A95G A96G | 1.14
47 | A23U A62G U87C A116G U124A | 0.27
48 | U19C U38C A96G A135G | 1.93

Row | Variant | self-cleavage
49 | A69U A90G U102C U103C | 0.04
50 | A51U U72C A95G A114C U130C | 0.01
51 | A89C U124A A140G | 0.53
52 | U2C A78U A114U G138A | 0.05
53 | A54C A89U A116G U132A | 0.21
54 | A78U A96U U102C A111U A114G | 0
55 | A4U U38C A59U A96C | 2.1
56 | A18U A52G A89G U102C A114G | 1.66
57 | A94G C109G A125G | 0
58 | A82G A114G U124C | 0.05
59 | A51G A60G A94G U133C | 1.74
60 | A23G A60G A118U | 0.8
61 | A13G A82G U108C A118G U127C U130C | 0
62 | A64G U97C C105U | 0.01
63 | U26C A82G G123A A129G | 0.22
64 | A11G A125G A126U | 0.92
65 | A11U A56G C81U A96G U120C | 0.1
66 | G7A U43A A96G | 2.09
67 | C40A A63U A89G | 1.52
68 | A27G A47U U87C | 0.56
69 | A23G A33U G83U A95G | 0.67
70 | A60G G74A U132C | 0.12
71 | U70C C76G A78C U130C | 0.09
72 | A5U U37C U49G A96C | 1.19

Row | Variant | self-cleavage
73 | U19A A54G A66G U100A U103C | 0.1
74 | A60G A68G U100C A117G | 1.92
75 | U39C A60G A63G A89G | 1.43
76 | A30U A33U U103C | 1.53
77 | A27G A67G U100C | 1.94
78 | A24U U49C A126G | 1.11
79 | A13C U103C A118G U130C | 0.84
80 | A18C A92U A94G A118G | 0.18
81 | A13G U39C A91G A140G | 1.41
82 | U2A A51G C61U A78G | 0.35
83 | A33G A36G U43G A52G | 0.97
84 | A47G A78U U130A | 0.12
85 | A129C U132A A135U | 1.56
86 | A67G A118G U122C U127C | 0.15
87 | U87C A92U A111G | 0.01
88 | U2C A22U U39A A54G | 1.45
89 | A18G A51G A94G | 0.79
90 | A11U A56G U127C | 1.02
91 | A18G U38C U100C | 0.76
92 | A51G A89G A117G A126G | 1.08
93 | A13G A33G C40U U102A U122C A140G | 0.58
94 | U43A A47G A78U A91G | 0.16
95 | A5G U70A U97C A114U | 0
96 | U9C A62C A63G A64G U72C | 0.42

Row | Variant | self-cleavage
97 | A23U A24G A51G A92G A114G | 0.24
98 | A22G C61U C85A A89U U122C | 1.03
99 | A24U A55G U70C A110G | 0.06
100 | A55G A62G U130C U132A | 1.08
101 | A63G A78G A116G | 0.09
102 | A13G A30G A96G | 1.34
103 | C34U A54G U57C U100C | 1.17
104 | A24G A55G A91G A118G A140G | 0.5
105 | A55G A68G U87C U122C | 1.19
106 | A59G A60G A62U A126G | 0.35
107 | U37C U39C A68G U132A | 1.43
108 | A11C A18U U72A U100C | 0.22
109 | U2C A78G A118G | 0.08
110 | A30G A59G A67G | 1.47
111 | U12G U124C U130G | 0.87
112 | A24U A126G U130C | 0.75
113 | A23G U37C A60G A117G A126G | 2.03
114 | U3C A23G A62G U102C | 1.34
115 | U9C A67C U132C | 2.79
116 | U3C A24G A63G | 0.87
117 | A22G A69U U103A U120G U130G | 0.28
118 | A13G U72A A126G | 0.2
119 | A11G U87A A118G | 0.82
120 | A54G A90U A118G | 1.62

Row | Variant | self-cleavage
121 | U43C A92U A126U | 1.38
122 | A22U U37C U102C A135U | 1.54
123 | A24U U38C A54G U87C | 1.07
124 | A11G A59G U122C | 0.55
125 | A59G A60G U131C | 1.14
126 | A67G A78G A94G | 0.04
127 | U9C U37C A126G | 1.84
128 | A4U U9C U130C | 1.07
129 | U26A A33G A51G G104A A116U A117G | 0.01
130 | A18U U49A U70C C107U A111G | 0.01
131 | A4C U12A A117G | 1.67
132 | A18G A82G A95C | 0.36
133 | U12C U39C A68G U100C U108A | 0.04
134 | A24C A67G U72G A111G | 0
135 | C25A A59U U72G U108A A114U | 0.02
136 | C10U A51U U103C C128U | 0.65
137 | G7A U37C A129G U132C | 0.83
138 | A54G U122C U139C | 1.3
139 | A5G U57C A96G | 0.43
140 | U9A U72C A94G U122A A135G | 0.27
141 | U70A A91U U97C U127C | 0.59
142 | U2G U12A A24G | 0.84
143 | G15A A55G A56G | 1.13
144 | U9C U39C A55G | 1.53

Row | Variant | self-cleavage
145 | A36G U38C A82U | 0.22
146 | U2C A69G U87C C121U | 1.19
147 | U2C U100C A117G A140G | 2.93
148 | A23G A56G A62G A67G U70A U87C | 0.84
149 | A5U A90G A116U U131C A140G | 0.09
150 | U2C A11G U72A | 0.27
151 | U2C U49A A51G | 0.52
152 | A54G A78U A111G | 0.04
153 | A22G A69G A110C | 0.4
154 | U87A A89G A116G | 0.71
155 | U72A U87C A111G | 0
156 | U12C A69U U132A | 1.04
157 | U57C A68G A69G A135G | 0.36
158 | U2C A89G U130C | 0.68
159 | A33G U43C U49C U108C A129G | 0.01
160 | A11G G58A A86G A114C | 0.05
161 | A56G A60G A90G A98G A111U U122C | 0.01
162 | U19A U39C U87C A89G U100C | 1.43
163 | A4G A82U A117G | 0.19
164 | A11G U57C A86G A96G | 1.18
165 | C40U U57A A110G U132C | 0.14
166 | A68G A78G A111G | 0.03
167 | A51G A56U A114U U124C | 0.02
